Laboratory results taken from the supplement of paper PMC8728848.
This is one part of the list.

Experiments:
Assay in all cases: glycan array binding signal (z-score within array); higher = stronger binding
Details in all cases: glycan notation: IUPAC condensed, linker removed
[1] = biological target: Neu5Ac(a2-8)Neu5Ac(a2-8)Neu5Ac(a2-8)Neu5Ac(a2-3)[GalNAc(b1-4)]Gal(b1-4)Glc
In short: (§1)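 Glycan array data were curated from 3228 arrays in the Consortium for Functional Glycomics database and kept only where the protein sequence was available. Glycan names were converted to IUPAC-condensed notation, and columns mapping to the same glycan were averaged. The binding signal is a within-array Z-score, averaged across arrays of the same protein sequence at different concentrations or buffers and across linkers. Negative Z-scores can be read as non-binding.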

[2] = biological target: Neu5Ac9Ac(a2-6)Gal(b1-4)GlcNAc
In short: as §1

[3] = biological target: Neu5Gc(a2-3)Gal(b1-3)GlcNAc
In short: as §1

[4] = biological target: Neu5Gc(a2-3)Gal(b1-3)[Fuc(a1-4)]GlcNAc
In short: as §1

Neu5Gc(a2-3)Gal(b1-4)Glc = biological target: Neu5Gc(a2-3)Gal(b1-4)Glc
In short: as §1

[5] = biological target: Neu5Gc(a2-3)Gal(b1-4)GlcNAc
In short: as §1

[6] = biological target: Neu5Gc(a2-3)Gal(b1-4)[Fuc(a1-4)]GlcNAc
In short: as §1

[7] = biological target: Neu5Gc(a2-6)Gal(b1-4)GlcNAc
In short: as §1

Neu5Gc(a2-6)GalNAc = biological target: Neu5Gc(a2-6)GalNAc
In short: as §1

B1: HMGB1 (Homo sapiens), P09429 (protein)
chain: MGKGDPKKPRGKMSSYAFFVQTCREEHKKKHPDASVNFSEFSKKCSERWKTMSAKEKGKFEDMAKADKARYEREMKTYIPPKGETKKKFKDPNAPKRPPSAFFLFCSEYRPKIKGEHPGLSIGDVAKKLGEMWNNTAADDKQPYEKKAAKLKEKYEKDIAAYRAKGKPDAAKKGVVKAEKSKKKKEEEEDEEDEEDEEEEEDEEDEDEEEDDDDE
[1]
  glycan array binding signal (z-score): 0.238
[2]
  glycan array binding signal (z-score): -0.073
[3]
  glycan array binding signal (z-score): -0.245
[4]
  glycan array binding signal (z-score): 1.03
Neu5Gc(a2-3)Gal(b1-4)Glc
  glycan array binding signal (z-score): 0.675
[5]
  glycan array binding signal (z-score): -0.256
[6]
  glycan array binding signal (z-score): -0.179
[7]
  glycan array binding signal (z-score): 0.015
Neu5Gc(a2-6)GalNAc
  glycan array binding signal (z-score): -0.195
